In PubChem BioAssay AID1346428 (National Center for Advancing Translational Sciences (NCATS), 2018) one finds activation data, which are given here for 52 compounds.

Hit rate of the full screen: of about 48,000 compounds, about 1,200 (2.5%) were called active. Roughly 2% stayed inconclusive and do not appear here.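 The calls were made as follows: active = activation of at least 60% and not above a set upper limit (about 1 call in 100 departs from these limits); inconclusive = activation of 40% to 60%, or above that upper limit; inactive = activation under 40%.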 Some of the results follow.

Sequence of UniProt O75388 (O75388 whole entry, looked up): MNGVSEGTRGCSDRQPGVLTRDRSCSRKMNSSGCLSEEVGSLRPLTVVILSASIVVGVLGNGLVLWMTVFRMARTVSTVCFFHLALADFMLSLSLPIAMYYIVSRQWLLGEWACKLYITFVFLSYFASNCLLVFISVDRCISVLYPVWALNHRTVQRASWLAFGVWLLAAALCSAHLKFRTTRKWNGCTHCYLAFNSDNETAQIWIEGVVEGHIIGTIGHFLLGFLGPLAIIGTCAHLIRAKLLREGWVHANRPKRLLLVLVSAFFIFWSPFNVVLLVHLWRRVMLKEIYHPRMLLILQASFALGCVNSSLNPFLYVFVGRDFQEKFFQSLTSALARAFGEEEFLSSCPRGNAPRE

In this test the target is Probable G-protein coupled receptor 32 (Homo sapiens) (UniProt O75388). The test is described as follows: qHTS for Agonists of Human Resolvin D1 Receptor DRV1. Also: 0% is about no effect. Particulars: CHO-K1 GPR32 beta-arrestin PathHunter luminescence, 90 min; at 76.9 µM; stronger effect = higher value; zero percent set by DMSO-only wells. Summed up:
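Readings come from a cell-based beta-arrestin complementation format: CHO-K1 GPR32 stable cells (2,500/well) treated 90 min with compounds, then beta-Gal substrate added for 1 h before chemiluminescence imaging.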
Background: In qHTS, concentration-response curves come from the screen itself.
As for `Cc1nc(SCc2ccc(Cl)cc2)c(C#N)c(C)c1Cl`, the activation was inactive: -9.88%.
The result for `CCOC(=O)c1cnc2ccc(OCC)cc2c1Nc1cc(Cl)c(OC)cc1OC` reads inactive: 24.9%.
For the compound `CC(=O)N1CCCc2cc(S(=O)(=O)N3CCCC(C(=O)Nc4cccc(Cl)c4C)C3)ccc21` (configuration not stated), the activation was inactive: -1.21%.
Regarding `CC(C)Cn1cc(C(=O)N2CCN(c3cccc(Cl)c3)CC2)c2c3ccccc3n(C)c2c1=O`, the activation was inactive: -23.3%.
Turning to `Cc1ccc(C)c(OC(=O)CSc2nnc(-c3ccc4c(c3)OCO4)o2)c1`, the activation is inactive: -14.9%.
For `COC(=O)c1ccc(Cn2c(SCC(=O)N(C)c3ccccc3)nc3ccccc32)cc1`, the activation was inactive: -14.8%.
The result for `CCOc1cc(C(=O)Nc2ccc(S(=O)(=O)Nc3cc(OC)nc(OC)n3)cc2)cc(OCC)c1OCC` reads inactive: 29.7%; that for `CCCCc1ccc(NC(=O)c2ccc3c(c2)CCN3S(=O)(=O)c2ccccc2)cc1`, inactive: -5.55%.
For `O=C(Nc1nnc(S(=O)(=O)N2CCCCCC2)s1)c1ccccc1Br`, the activation is inactive: 20.4%.
As to `COc1ccc2c(c1)CC(C(=O)NCCN1CCN(c3cccc(C)c3C)CC1)CO2` (configuration not stated), the activation is inactive: -14.4%.
Under `COc1ccc2c(c1)c1c(c(=O)n(Cc3ccccc3)c(=O)n1CC(=O)Nc1ccc(C)cc1C)n2C` stands inactive: 4.08%.
The result for `CC(C)CCNC(=O)Nc1cc(C(=O)NCc2cccc(F)c2)ccc1N1CCCC1` reads inactive: -22%; that for `O=C(C1CCN(S(=O)(=O)Cc2ccccc2)CC1)N1CCN(c2cccc(Cl)c2)CC1`, inactive: -2.49%.
The result for `COc1ccc(C)cc1NC(=O)Cn1c(=O)oc2cc(S(=O)(=O)NCc3ccccc3)ccc21` reads inactive: -0.515%; that for `CSc1cccc(NC(=O)C2CCN(S(=O)(=O)c3ccc4[nH]c5c(c4c3)CCCCC5)CC2)c1`, inactive: 5.2%; that for `Cc1ccc(NC(=O)C2CCCN(S(=O)(=O)c3c(C)n[nH]c3C)C2)cc1C` (configuration not stated), inactive: 16%.
In the case of `CCOC(=O)c1ccc(CN(Cc2ccc(C)cc2)S(=O)(=O)c2ccc(NC(C)=O)cc2)cc1`, the activation was inactive: -18.3%.
Take `c1ccc(CCNc2nc(-c3ccccc3)cs2)cc1`: the activation was inactive: 9.66%.
With `CCn1cc2nc(SCc3ccc(F)cc3)n(Cc3ccc(Cl)cc3)c(=O)c2n1`, the activation was inactive: 2.74%.
For the compound `CCCS(=O)(=O)N1CC(=O)N(c2ccc(Cl)cc2)C(C)(C(=O)NC2CCCC2)C1` (configuration not stated), the activation was inactive: 0.402%.
Regarding `COCCCNC(=O)CN1C(=O)CSc2ccc(S(=O)(=O)N3CCOCC3)cc21`, the activation is inactive: -6.95%.
As to `CC(=O)Nc1ccc(Nc2nnc(-c3ccc(C)c(S(N)(=O)=O)c3)c3ccccc23)cc1`, the activation was inactive: -2.13%.
The result for `Cc1ccc(NC(=O)C(=O)NCCc2csc3nc(-c4ccccc4C)nn23)cc1Cl` reads inactive: 5.74%.
Under `O=C(Nc1ccc(S(=O)(=O)N(Cc2ccccc2)c2ccccc2)cc1)c1ccc([N+](=O)[O-])cc1` stands inactive: -5.12%.
Take `O=C(NCc1ccc2c(c1)CCN2C(=O)c1ccccc1)c1ccco1`: the activation is inactive: -27.3%.
Under `Cc1ccc(NC(=O)c2oc3ccc(S(=O)(=O)N4CCC5(CC4)OCCO5)cc3c2C)c(C)c1` stands inactive: 24%; under `COCCn1c(SCC(=O)Nc2ccc(C(F)(F)F)cc2)nc2c([nH]c3ccccc32)c1=O`, inactive: -36.1%.
The result for `COc1cccc(N2CCN(C(=O)c3cc4c(=O)n(Cc5ccco5)ccc4nc3C)CC2)c1` reads inactive: -30.3%; that for `O=C(NCc1ccccc1Cl)c1ccc(NC(=O)N2CCSc3ncccc32)cc1`, inactive: -13.7%; that for `CCN1CCN(CCCNC(=O)c2ccc3nc(Cc4ccccc4)oc3c2)CC1`, inactive: -19.4%.
The result for `COc1ccc(N2CCN(C(=O)c3cc(S(=O)(=O)N4CCC(C)CC4)cn3C)CC2)cc1` reads inactive: -0.755%; that for `O=C(NCC(c1ccc2c(c1)OCO2)N1CCOCC1)c1c(F)cccc1F` (configuration not stated), inactive: -19.8%; that for `COc1ccc(-n2ccnc(NCc3ccc(C)cc3)c2=O)cc1OC`, active: 64.8%.
As for `Cc1cccc(N2CCN(c3nc4ccc(C)cc4n4cnnc34)CC2C)c1` (configuration not stated), the activation is inactive: -16.7%.
Under `CCOC(=O)C12CC1/C(=N/O)c1ccccc1O2` (configuration not stated) stands inactive: -6.92%; under `CCN(C(=O)C1CCN(c2ncnc3c2nc2n3CCCCC2)CC1)c1cccc(Cl)c1`, inactive: -9.58%.
The result for `COc1ccc(N(CC(=O)N2CCN(c3ccccc3F)CC2)S(=O)(=O)c2c(C)n[nH]c2C)cc1` reads inactive: -0.35%.
For `Cc1cccc(NC(=O)CCNS(=O)(=O)c2cccc3nsnc23)c1C`, the activation was inactive: 19.5%.
Consider `CCn1cc(C(=O)NCCc2ccc(Cl)cc2)c(=O)c2cc(S(=O)(=O)N3CCC(C)CC3)ccc21`, for which the activation was inactive: -25.7%.
For `O=C(NC1CCCCC1)c1ccc2c(c1)N(Cc1ccc(Cl)cc1)C(=O)c1ccccc1S2=O` (configuration not stated), the activation is inactive: -17.8%.
Under `O=C(c1ccc(F)cc1)n1nc(-c2ccccc2)nc1NCc1ccco1` stands inactive: -10.6%; under `CCOc1ccccc1N(CC)C(=O)c1noc2c1COc1ccc(C)cc1-2`, inactive: -16.9%; under `Cc1cccc(C(=O)Nc2ccc(C(=O)OCc3cc(=O)n4nc(CC(C)C)sc4n3)cc2)c1`, inactive: -21.8%.
Under `COc1ccc(NC(=O)/C=C\C(=O)N(c2ccc(C(C)C)cc2)C(C(=O)NCc2ccco2)c2ccc(F)cc2)cc1` (configuration not stated) stands inactive: -22.8%.
Under `O=C(c1ccccc1)N(Cc1ccco1)Cc1cccs1` stands inactive: -12.7%.
For the compound `CCn1c(C)c(C)c2cc(C(=O)NCc3cccc(C)c3)ccc21`, the activation was inactive: -23.1%.
For the compound `CCc1ccccc1NC(=O)CCS(=O)(=O)c1cccc2nonc12`, the activation was inactive: 5.36%.
Regarding `COc1ccc(OCC(=O)N2CCN(C(=O)c3cccc(OC)c3)CC2)cc1`, the activation is inactive: 4.97%.
The result for `COc1cccc(CNC(=O)CCc2c(C)c3cc4c(C)coc4c(C)c3oc2=O)c1` reads inactive: -5.07%; that for `COc1ccccc1NC(=O)c1sc2nc(C)c(C(=O)Nc3ccc(C)cc3C)c(-c3ccc(C)o3)c2c1N`, inactive: -16.1%.
Under `NS(=O)(=O)c1ccc2nc(NC(=O)COc3ccccc3)sc2c1` stands inactive: -8.25%.
The result for `COCCNC(=O)CSc1nc(-c2ccccc2C)nc2c1c(=O)n(C)c(=O)n2C` reads inactive: -14.3%.
